The text below walks through data of patent US11866509B2, “Humanized antibodies against CEACAM1” (Famewave Ltd., priority 2014, dated 2024).

The subject of series [1] is melanoma cells (cell line MEL526). The series is described as follows: Melanoma lung lesion model with human TIL. The class given is in vivo, SCID-NOD mice. The procedure:
FIG. 13A presents pictograms of lungs removed from mice engrafted with melanoma cells and treated according to the treatment groups indicated in the figure; FIG. 13B presents the average tumor weight of each treatment group; and FIG. 13C presents the number of lesions per mouse of each treatment group.
SCID-NOD mice were engrafted IV with 5×10^6 melanoma cells (cell line MEL526) and were treated for 44 days according to the treatment groups indicated in FIGS. 13A-13C. Antibodies were given twice a week by IV injection and 10×10^6 TIL were administered IV every 10 days. At day 49 the mice were sacrificed and the lungs were removed, photographed (FIG. 13A), weighed (FIG. 13B) and the lesions were counted (FIG. 13C). FIG. 13A—Digital photos of the mice lungs immediately after harvest. FIG. 13B—Tumor weight was calculated by subtracting the lung weight of the naïve mice from the average lung weight of the different treatment groups. The results represent the average of tumor weight ±SE from 7-8 mice per treatment group. FIG. 13C—The number of lung lesions in individual mice in the various groups; the black lines represent group medians; lungs with uncountable lesions were scored as 100. Paired T test was used to calculate statistical significance between the groups * P≤0.05, ** P≤0.025.

Series [2] can be described thus: Toxicokinetics and anti-drug antibody evaluation in the repeat dose study. Type of series: in vivo, rhesus monkeys. The procedure:
A 6 week repeat dose study was performed in rhesus monkeys to evaluate the toxicity and toxicokinetics of CM-24. CM-24 was administered via intravenous (IV) infusion (the intended clinical route of administration) once every two weeks for a total of 4 doses (mimicking the intended treatment cycle in oncology patients) at doses representing 2.5× (25 mg/kg) and 10× (100 mg/kg) the projected maximal dose in humans (10 mg/kg). No obvious treatment related adverse reactions, no gross or microscopic pathological findings, and no mortality were observed. Ophthalmoscopy and electrocardiography indicated no findings related to the treatment.

A short description of series [3]: Safe clinical starting dose from MABEL of mouse tumor xenograft models. The note with it: comprising a 10 fold safety factor. The protocol: The safe clinical starting dose for CM-24 based on the MABEL determined from the in vivo experiments in the mouse tumor xenograft models results is in the range of 0.2-1 mg/kg, comprising a 10 fold safety factor.
The nature of series [4]: CM-24 serum level in the lung lesion model. The class given is in vivo, SCID-NOD mice. The conditions noted are these: termination day. The protocol:
At termination day, a flow cytometry based assay in combination with a QuantiBrite KIT was used in order to determine CEACAM1 receptor occupancy by CM-24 in human TIL isolated from the lungs of the treated mice. […] Examination of CEACAM1 RO values was performed using a flow cytometry based assay using PE conjugated CM-24 antibody and a QuantiBrite Kit (BD) Results represent average±SE of RO values on TIL isolated from the lung of 8-9 mice per treatment group. Data was analyzed using Kaluza software.

B1: CM-24: back-mutated humanized IgG4 anti human CEACAM1 monoclonal antibody; light chain SEQ ID NO: 52, heavy chain SEQ ID NO: 53 (antibody)
heavy: QVQLVQSGAEVKKPGASVKVSCKASGYAFTNNLIEWVRQAPGQGLEWIGVINPGSGDTNYNEKFKGRVTMTADKSISTAYMELSRLRSDDTAVYYCARGDYYGGFAVDYWGQGTTVTVSSASTKGPSVFPLAPCSRSTSESTAALGCLVKDYFPEPVTVSWNSGALTSGVHTFPAVLQSSGLYSLSSVVTVPSSSLGTKTYTCNVDHKPSNTKVDKRV[letters of human IgG4 Fc with S228P (EU numbers) left out]
light: DIQMTQSPSSLSASVGDRVTITCRTSQDIGNYLNWYQQKPGKAVKLLIYYTSRLHSGVPSRFSGSGSGTDYTLTISSLQPEDIATYFCQQGKSLPRTFGGGTKVEIKRTVAAPSVFIFPPSDEQLKSGTASVVCLLNNFYPREAKVQWKVDNALQSGNSQESVTEQDSKDSTYSLSSTLTLSKADYEKHKVYACEVTHQGLSSPVTKSFNRGEC
Regarding B1, the “number of lung lesions, group median” value in series [1] (1 mg/kg) worked out at 5; in series [1] (3 mg/kg), 6; in series [1] (6 mg/kg), 3; in series [1] (10 mg/kg), 2. The “tumor growth inhibition (TGI)” value in series [1] (1 mg/kg IV twice a week) was 84%; in series [1] (3 mg/kg IV twice a week), 87%; in series [1] (6 mg/kg IV twice a week), 90%; in series [1] (10 mg/kg IV twice a week) it was 93%. Also, the “number of lung lesions per lung” value in series [1] (all CM-24 doses) was no more than 10. Moreover, the “Cmax and AUC on Day 42 as compared to Day 0” value in series [2] (IV infusion once every two weeks) is given as “slight increase”. In addition, the “CM-24 exposure (Cmax, AUC) versus dose” value in series [2] (IV infusion, 25 and 100 mg/kg) is reported as “dose-proportional increase”. For the same molecule, the “anti-CM-24 antibody (ADA) response” value in series [2] (repeated dosing) is “Only a single animal in Group 2 (25 mg/kg) showed a positive anti-CM-24 antibody response”. For the same molecule, in series [3], the “safe clinical starting dose based on the MABEL” value was in the range of 0.2 to 1 mg/kg. Besides, the values for the CM-24 serum level in series [4] (3 mg/kg), in series [4] (6 mg/kg) and in series [4] (10 mg/kg) were 0.3 µg/mL, 48.5 µg/mL and 111 µg/mL, respectively.
